According to the supplement of paper PMC4166925:
± gives the standard deviation of the averaged measurements. The full ranking holds about 33,000 sequences; the median of “E-score (dimensionless, -0.5 to 0.5)” is about -0.046, and the highest 2% start at about 0.36. The list shows a part of the results.

System: T1, SpTbr T-box DNA-binding domain (GST fusion)
T1 sequence: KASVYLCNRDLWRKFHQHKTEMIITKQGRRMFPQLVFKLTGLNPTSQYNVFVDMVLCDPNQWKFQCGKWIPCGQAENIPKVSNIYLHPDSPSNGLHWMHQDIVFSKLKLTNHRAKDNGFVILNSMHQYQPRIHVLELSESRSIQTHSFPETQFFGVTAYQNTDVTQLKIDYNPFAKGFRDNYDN
Test: PBM E-score of 8-mer (E-score (dimensionless, -0.5 to 0.5)); Tbr is Tbrain of the sea star Patiria miniata (Pm) or the sea urchin Strongylocentrotus purpuratus (Sp); higher = stronger binding preference; most listed sequences are background and not binding sites
Details: the construct has about 5 more residues each side
Experimental: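 Universal protein-binding microarray (Agilent AMADID 016060, 60-bp probes with a 35-bp variable region) incubated with 200 nM GST-fused Strongylocentrotus purpuratus Tbr T-box DNA-binding domain (residues 362-554) in PBS pH 7.5. Scored for every ungapped 8-mer (given with its reverse complement) as E-score (range -0.5 to 0.5; >0.45 counts as bound) and Z-score of median probe intensity. Two replicate arrays (datasets 1 and 2).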
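Also: protein at 200 nM in PBS on universal double-stranded arrays.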

Row | Sequence | PBM E-score of 8-mer
1 | AACCGGAC | -0.18 ± 0.04
2 | ATGGTCAC | 0.0482 ± 0.081
3 | ATCCCAGA | -0.0492 ± 0.043
4 | CCACAGAG | -0.188 ± 0.062
5 | TCTATGAA | -0.0704 ± 0.064
6 | CCAAAACA | 0.0346 ± 0.013
7 | ACCTGCCA | 0.261 ± 0.023
8 | GGCTGCAA | -0.0937 ± 0.073
9 | TGCTTCAA | -0.12 ± 0.0093
10 | ACATTCCA | -0.0743 ± 0.017
11 | ACTAATCA | 0.0319 ± 0.027
12 | CAATTTCG | 0.026 ± 0.04
13 | ACTGGCGA | 0.183 ± 0.034
14 | ACGACATC | -0.0327 ± 0.082
15 | CACTACCC | 0.0258 ± 0.021
16 | AATGGAAG | -0.0645 ± 0.12
17 | CTGCCGAA | -0.0929 ± 0.017
18 | ACACCGAG | 0.223 ± 0.0051
19 | CCTGGAAG | -0.0328 ± 0.025
20 | CAGGATCG | 0.0982 ± 0.016
21 | AAAGAGAG | -0.0256 ± 0.025
22 | CCCGGAAA | -0.166 ± 0.0047
23 | ACTAGCGC | 0.0746 ± 0.061
24 | AGTCATCC | -0.186 ± 0.021
25 | CATAAGGA | -0.176 ± 0.047

Row | Sequence | PBM E-score of 8-mer
26 | GCGCGTAC | 0.189 ± 0.031
27 | CAGCCCGG | -0.16 ± 0.07
28 | CTCCGACA | 0.248 ± 0.011
29 | ACTCTTGG | 0.0491 ± 0.036
30 | AGGCTCTA | -0.194 ± 0.043
31 | CCCATCGG | -0.173 ± 0.073
32 | TCAAGAGA | -0.146 ± 0.066
33 | ATCGCTCC | -0.00967 ± 0.043
34 | TCATATCA | 0.0665 ± 0.022
35 | CCATCCAC | 0.000305 ± 0.018
36 | AACTGATC | -0.0634 ± 0.015
37 | CCGCAACG | -0.206 ± 0.061
38 | ATTATCAA | -0.0682 ± 0.11
39 | ATAGGGTG | 0.202 ± 0.0067
40 | GTTGGATA | 0.0211 ± 0.034
41 | ACTATGAC | 0.16 ± 0.0057
42 | ATTTGTCG | 0.156 ± 0.017
43 | AAATTACG | -0.0498 ± 0.015
44 | ACGAACTG | 0.0146 ± 0.005
45 | AGGGATGC | -0.106 ± 0.045
46 | AAGCCTTG | -0.0684 ± 0.018
47 | ACGTAAGT | -0.0022 ± 0.049
48 | CCTATCCA | -0.128 ± 0.06
49 | CCGGAGCC | -0.154 ± 0.019
50 | ATACGATA | 0.0458 ± 0.0051

Row | Sequence | PBM E-score of 8-mer
51 | GCCTGGCC | -0.11 ± 0.042
52 | ACCTTGAA | 0.078 ± 0.032
53 | GACTATGC | -0.0275 ± 0.051
54 | ACCTAGTC | 0.0902 ± 0.049
55 | AGGGCTAT | -0.3048 ± 0.0006
56 | TCACATCA | 0.244 ± 0.0068
57 | CCTCATGA | -0.17 ± 0.052
58 | GACCACCC | -0.0294 ± 0.0021
59 | TACACGAA | -0.0857 ± 0.046
60 | ATCCGTTG | 0.055 ± 0.03
61 | ATGGATGA | -0.161 ± 0.039
62 | CAAGAGGG | -0.0842 ± 0.019
63 | AACGTATG | -0.15 ± 0.013
64 | ACCACCCG | 0.19632 ± 0.00012
65 | CGGGAGAA | -0.0944 ± 0.018
66 | AGGAGTTA | -0.0738 ± 0.06
67 | TACGGGAA | -0.184 ± 0.049
68 | GTCGTTTA | 0.0537 ± 0.065
69 | AGATGATG | -0.186 ± 0.03
70 | ACCCCAGT | -0.26 ± 0.041
71 | CAGGAAGG | -0.0666 ± 0.017
72 | CTTCCATA | -0.266 ± 0.054
73 | CAGGTAGA | 0.0271 ± 0.053
74 | GGCCGTTA | -0.0839 ± 0.031
75 | GGGGGGCA | -0.299 ± 0.035

Row | Sequence | PBM E-score of 8-mer
76 | TGACCCCA | -0.112 ± 0.051
77 | GGCTAGCC | -0.125 ± 0.013
78 | ACGGGCTG | -0.04 ± 0.019
79 | AGTTAACG | 0.127 ± 0.006
80 | TCGGTAGA | -0.12 ± 0.029
81 | CAGTCTAA | -0.234 ± 0.013
82 | AAAATCTT | -0.306 ± 0.05
83 | AGAGGGAG | -0.151 ± 0.094
84 | ACCGGCAC | 0.143 ± 0.016
85 | ACAGTGAG | 0.182 ± 0.035
86 | CTTAGACC | 0.121 ± 0.036
87 | AATTACCT | 0.0506 ± 0.021
88 | GGGCATTA | -0.0886 ± 0.022
89 | CTTAGCTC | -0.108 ± 0.0053
90 | CCTTCCAC | 0.117 ± 0.00096
91 | GCTCACTA | 0.106 ± 0.035
92 | ACTTGTAC | -0.109 ± 0.04
93 | CCTCTTCC | -0.301 ± 0.058
94 | GACGAACC | -0.0477 ± 0.062
95 | ATGGTAGC | -0.0119 ± 0.043
96 | AGGGGCTC | -0.19 ± 0.036
97 | TACCCTCA | -0.129 ± 0.052
98 | GCCCAGTA | -0.317 ± 0.047
99 | AAGGTACC | -0.0254 ± 0.032
100 | GTTACAAA | 0.0843 ± 0.029

Row | Sequence | PBM E-score of 8-mer
101 | CCAGCGCA | 0.053 ± 0.05
102 | TAAGCGTA | -0.151 ± 0.1
103 | CGCGGTTC | 0.248 ± 0.017
104 | AGGAGGCG | 0.188 ± 0.0036
105 | GAGGCACA | -0.0216 ± 0.022
106 | ATTGCCGA | 0.0197 ± 0.05
107 | AGCCTGCA | -0.302 ± 0.061
108 | CTATATAG | 0.0511 ± 0.096
109 | CCAATTTA | -0.0787 ± 0.089
110 | AGAATGGA | -0.1419 ± 0.00046
111 | CTTCCCCA | 0.0679 ± 0.013
112 | CTAAAGTA | -0.152 ± 0.067
113 | GGTGTACA | 0.124 ± 0.027
114 | AACGCCTC | 0.35 ± 0.0088
115 | CCAGTAAC | -0.0456 ± 0.12
116 | CGCTTATC | 0.114 ± 0.058
117 | ACCCGTAG | -0.108 ± 0.068
118 | ACAACCTC | 0.188 ± 0.052
119 | ATCGCAAG | 0.177 ± 0.03
120 | CAGGGGCG | 0.178 ± 0.0098
121 | AACGACCT | -0.022 ± 0.073
122 | CTGTGTGA | 0.341 ± 0.0081
123 | CATTGCGG | -0.135 ± 0.14
124 | TTCATGAA | -0.226 ± 0.058
125 | GCGTGTGA | 0.399 ± 0.0074

Row | Sequence | PBM E-score of 8-mer
126 | CAGCGCGA | 0.199 ± 0.0059
127 | CGCTACCG | 0.161 ± 0.065
128 | AGCATAGC | -0.135 ± 0.061
129 | GGTCTCTA | -0.0913 ± 0.053
130 | GGAGTAAC | -0.105 ± 0.093
131 | AGCGATCA | -0.012 ± 0.037
132 | AAAGCAGG | 0.0689 ± 0.054
133 | GCATCCCA | -0.16 ± 0.063
134 | GGTTGGTA | 0.0117 ± 0.0092
135 | CATGGGGG | -0.208 ± 0.089
136 | TGCCGGCA | -0.014 ± 0.024
137 | GCCCCGAA | -0.289 ± 0.048
138 | CTATGATA | -0.0559 ± 0.048
139 | CAGCTCTA | 0.0297 ± 0.058
140 | AAACGGGA | -0.195 ± 0.016
141 | AAAAATCG | 0.0348 ± 0.06
142 | AAGCTCCT | -0.254 ± 0.0019
143 | AAGTTCCG | -0.08626 ± 0.00049
144 | GTGCAGGA | -0.022 ± 0.029
145 | TACTGAGA | -0.222 ± 0.019
146 | ACTTCTTA | 0.0319 ± 0.0027
147 | CTTGTGGC | 0.0823 ± 0.0071
148 | ATTATAAT | 0.0341 ± 0.035
149 | CACTTAAC | 0.254 ± 0.023
150 | GTACGTTA | -0.0864 ± 0.023

Row | Sequence | PBM E-score of 8-mer
151 | ACCTCCGT | 0.294 ± 0.014
152 | ACAATCAG | -0.0516 ± 0.0027
153 | CACGGCAC | 0.136 ± 0.0037
154 | GGGTCTTA | -0.234 ± 0.013
155 | ACCAACTC | -0.0494 ± 0.099
156 | ACGCCAGT | 0.103 ± 0.015
157 | CTTATACC | -0.158 ± 0.0016
158 | AGTCTAAA | -0.245 ± 0.028
159 | CCAGAAAC | -0.0652 ± 0.12
160 | GGGGCCCC | -0.206 ± 0.032
161 | CTTCCGAC | -0.0491 ± 0.042
162 | GTTTCGTA | 0.0678 ± 0.063
163 | AAGTTGCA | -0.0877 ± 0.04
164 | AAGCGGCA | -0.0503 ± 0.027
165 | GAAGCAAA | -0.213 ± 0.071
166 | CGGGGCGA | 0.00653 ± 0.024
167 | AGTACGAT | -0.142 ± 0.0097
168 | CAGTAGGC | 0.000145 ± 0.048
169 | AACCCAAG | -0.0609 ± 0.0022
170 | CCGCGCGA | 0.203 ± 0.03
171 | GTTATATA | -0.0254 ± 0.014
172 | TGTACGAA | -0.0938 ± 0.015
